# From PubChem BioAssay AID485294 (National Center for Advancing Translational Sciences (NCATS), 2010)
# Screen size: about 370,000 compounds; about 150 (0.041%) were called active. This list was built around the results that the source calls inconclusive (neither active nor inactive); the mix of calls is not that of the screen. The call rests on the fitted dose curve; in most records, active means well fitted inhibition curve with a large enough effect; inconclusive means small, poorly fitted or top-dose-only effect; inactive means flat fitted curve, though single readings scatter. No potency is given beside an inconclusive call; the fits are too rough.
# Biological target: Beta-lactamase (Escherichia coli (strain K12)) (UniProt P00811)
# Assay: qHTS Inhibitors of AmpC Beta-Lactamase (assay with detergent); further: nearly all actives have a fitted effect of over 25% in size
# Conditions: AmpC hydrolysis of nitrocefin, absorbance 480 nm, 0.01% Triton; series mostly up to 114 µM
# Procedure, shortened: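 AmpC (5.3 nM in the dispensed reagent) in 20 mM phosphate pH 7.0 with 0.01% (detergent screen) or 0.0001% Triton X-100 was preincubated with compounds for 15 min at room temperature. Nitrocefin was then added from an 800 uM solution, and hydrolysis was followed at 480 nm.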
# Potency means the concentration at half of the fitted maximal effect; tags describe the fitted curve by direction and shape.
# Chain of UniProt P00811 (P00811 whole entry, looked up): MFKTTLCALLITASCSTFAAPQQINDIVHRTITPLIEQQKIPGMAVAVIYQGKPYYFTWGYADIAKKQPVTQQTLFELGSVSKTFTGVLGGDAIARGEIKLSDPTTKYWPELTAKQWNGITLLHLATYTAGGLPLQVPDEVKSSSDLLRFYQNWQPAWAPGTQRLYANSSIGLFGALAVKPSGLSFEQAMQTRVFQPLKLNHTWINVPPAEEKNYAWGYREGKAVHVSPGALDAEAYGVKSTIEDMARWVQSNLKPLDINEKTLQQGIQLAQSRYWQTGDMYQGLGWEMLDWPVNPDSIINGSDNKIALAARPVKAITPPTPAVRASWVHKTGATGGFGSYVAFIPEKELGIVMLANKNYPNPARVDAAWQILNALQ
row,Compound,Potency
1,Cc1cc2nc3ccc(=[N+](C)C)cc-3sc2cc1N,"inconclusive [inhibitor, partial curve, poor fit]"
2,O=C(c1cc(COc2cccc(C(F)(F)F)c2)on1)N1CCC(c2ccncc2)CC1,inactive
3,COc1cccc(-c2nn(C)c3sc(C(=O)NCc4ccc5c(c4)OCO5)cc23)c1,"inconclusive [inhibitor, full curve, poor fit]"
4,COC(=O)c1cc(NC(=O)c2cc(-c3ccc(Cl)cc3)oc2C(F)(F)F)ccc1N1CCOCC1,inactive
5,O=c1c2ccccc2n(Cc2ccc(F)cc2)c(=O)n1C1CCCC1,"inconclusive [inhibitor, full curve]"
6,O=C(CCCCCn1c(SCC(=O)c2ccccc2)nc2ccccc2c1=O)NCc1ccco1,"inconclusive [inhibitor, full curve, poor fit]"
7,Cc1nc(Nc2ccccc2)sc1C(=O)c1ccccc1,inactive
8,CCOC(=O)c1ccccc1Nc1cn(C(C)=O)c2ccccc12,inactive
9,Cc1ccc(S(=O)(=O)c2cc3c(=O)n4cccc(C)c4nc3n(C3CCCCC3)c2=N)cc1,inactive
10,CCN(CC)CCNC(=O)c1ccc(NC(=O)c2c(C)nn(-c3ccc(F)cc3)c2Cl)cc1,inactive
11,CCOc1ccc(OCC(=O)OCC(=O)Nc2ccccc2C#N)cc1,"inconclusive [inhibitor, partial curve, poor fit]"
12,COc1ccc(/C=C2\NC(=S)N(CC3CCCO3)C2=O)c(OC)c1C (stereo unspecified),"inconclusive [inhibitor, full curve, poor fit]"
13,COCC(=O)NC(c1ccccc1)c1ccccc1,"inconclusive [inhibitor, partial curve]"
14,Cc1ccc(OCC(=O)Nc2ccc3c(c2)nc(CCN2CCOCC2)n3C)cc1,"inconclusive [inhibitor, full curve]"
15,O=C(N/N=C/c1ccco1)c1ccc(Br)o1,inactive
16,CCOC(=O)C1CCCN(c2ncnc3c2cnn3-c2ccc(C)c(Cl)c2)C1 (stereo unspecified),inactive
17,CCOC(=O)c1ccc2c(c1)nc(SCC(=O)NC(C)C)n2CC,"inconclusive [inhibitor, full curve, poor fit]"
18,Cc1ccccc1CS(=O)(=O)Cc1ccc(C(=O)NCCc2ccccc2)o1,inactive
19,S=C(NCCCc1ccccc1)NCc1ccccc1,inactive
20,COc1cc(OC)cc(-n2nc(C(=O)N3CC(C)CC(C)C3)c3ccccc3c2=O)c1 (stereo unspecified),"inconclusive [inhibitor, full curve]"
21,O=c1cc(C(F)(F)F)nc(SCc2cccnc2)[nH]1,"inconclusive [inhibitor, single point]"
22,COc1cc(C(c2c(O)nc(SC)[nH]c2=O)c2c(O)nc(SC)[nH]c2=O)cc(OC)c1OC,"inconclusive [inhibitor, full curve, poor fit]"
23,COc1ccccc1CNC(=O)Cn1ncc2c(=O)oc3ccc(C)cc3c21,inactive
24,O=c1[nH]c(=O)n(Cc2ccco2)c(O)c1C=NCc1ccc2c(c1)OCO2,inactive

row,Compound,Potency
1,COc1cc(C(=O)NCC(c2cccnc2)N2CCN(C)CC2)cc(OC)c1OC (stereo unspecified),"inconclusive [inhibitor, partial curve, poor fit]"
2,O=C(c1cc2cc3ccc(Cl)cc3nc2o1)N1CCCCCC1,inactive
3,CCCNC(=O)N1[C@H]2CC[C@@H]1C(C(=O)OC)=C(c1ccc(F)cc1OCc1ccccc1)C2,inactive
4,CCOC(=O)N1CCN(C2CC(=O)N(c3ccc(F)cc3)C2=O)CC1 (stereo unspecified),inactive
5,N/C(=N/OCc1cccc([N+](=O)[O-])c1)c1nonc1N,"inconclusive [inhibitor, full curve]"
6,CCN(CC)C(=S)SSC(=S)N(CC)CC,"inconclusive [inhibitor, partial curve]"
7,COc1ccccc1NC(=O)C(C)OC(=O)/C(=C/c1ccccc1)NC(C)=O (stereo unspecified),"inconclusive [inhibitor, partial curve, poor fit]"
8,CCCCN(C)CCNC(=O)c1cn(C)c(=O)c2c1c1ccccc1n2C,inactive
9,COc1ccc(CN(Cc2ccccn2)S(=O)(=O)c2ccc(-n3cnnn3)cc2)cc1,"inconclusive [inhibitor, partial curve, poor fit]"
10,COc1ccccc1C(=O)Nc1nc2ccc(S(=O)(=O)N3CCCC3)cc2s1,inactive
11,COCCCN1C(=O)C(=O)/C(=C(/O)c2ccc(OC)cc2C)C1c1cccnc1 (stereo unspecified),inactive
12,CCNc1nc2c(c(=O)[nH]c(=O)n2C)n1Cc1ccc(F)cc1,"inconclusive [inhibitor, full curve, poor fit]"
13,Cc1ccc2ccc(C(Nc3ccccn3)c3ccccc3)c(O)c2n1 (stereo unspecified),"inconclusive [inhibitor, full curve, poor fit]"
14,O=C(c1ccc(NC(=S)Nc2ccc(Cl)c(Cl)c2)cc1)N1CCCC1,"inconclusive [inhibitor, full curve, poor fit]"
15,CCOc1ccc(C(=O)Nc2ccc3c(c2)OCCO3)cc1[N+](=O)[O-],"inconclusive [inhibitor, single point]"
16,COc1ccc(N(CC(=O)NCc2ccncc2)S(=O)(=O)c2ccccc2[N+](=O)[O-])c(OC)c1,"inconclusive [inhibitor, single point]"
17,COc1ccccc1/C=C/C=N/n1c(-c2ccncc2)n[nH]c1=S,inactive
18,CCOC(=O)CN1C(=O)C(Sc2n[nH]c(-c3ccc(C)cc3)n2)CCc2ccccc21 (stereo unspecified),"inconclusive [inhibitor, full curve]"
19,COc1cc(C)ccc1OCc1cc(C(=O)NCCN2CCCC(O)C2)no1 (stereo unspecified),"inconclusive [inhibitor, full curve, poor fit]"
20,c1cc2c(cc1-n1cnnn1)OCO2,inactive
21,CC(=O)c1c(C)[nH]c(C(=O)Nc2nc(-c3ccc(Cl)cc3)cs2)c1C,inactive
22,O=C(Cn1cnc([N+](=O)[O-])n1)NC1CC1,"inconclusive [inhibitor, single point]"
23,CCCOc1ccccc1C(=O)N1CCC(c2nc3ccccc3s2)CC1,inactive
24,COC(=O)C1CCN(C(=O)C2CCN(C(=O)[C@@H](NS(=O)(=O)c3ccc(C)cc3)C(C)C)CC2)CC1,"inconclusive [inhibitor, full curve, poor fit]"

row,Compound,Potency
1,COc1ccc(C(=O)COC(=O)CCCN=C2NS(=O)(=O)c3ccccc32)c(OC)c1,"inconclusive [inhibitor, partial curve]"
2,O=C(NC1CCCCC1)c1cc2c(cc1Cl)N1CCCCCC1=NS2(=O)=O,"inconclusive [inhibitor, partial curve]"
3,CCCn1c(=O)n(-c2ccccc2)c(=O)c2sc3ccccc3c21,inactive
4,COC(=O)c1ccccc1-c1ccc(/C=N/NC(=O)c2cc3ccccc3o2)o1,"inconclusive [inhibitor, full curve]"
5,CCOC(=O)C1=C(C)N(CCCC(=O)O)C(=O)NC1c1ccc(OC)cc1 (stereo unspecified),"inconclusive [inhibitor, partial curve, poor fit]"
6,CC(=O)O[C@H]1CC[C@@]2(C)[C@@H](CC[C@@H]3[C@@H]2CC[C@]2(C)[C@@H](C(C)(C)O)C[C@@H]32)C1,"inconclusive [inhibitor, full curve, poor fit]"
7,NC(=O)c1cc(S(=O)(=O)NCc2ccccc2)cs1,inactive
8,O=C(O)C1C2CCC(O2)C1C(=O)Nc1ccc(F)c(Cl)c1 (stereo unspecified),"inconclusive [inhibitor, full curve]"
9,COc1cccc(-c2nc3c(c(SCc4ccccc4)n2)Cc2c(CO)cnc(C)c2O3)c1,inactive
10,CCN(CC)CCn1c(SCC(=O)NCc2ccco2)nc2c(sc3ccccc32)c1=O,inactive
11,O=C(CSc1nnnn1-c1ccc(C(=O)O)cc1)NC1CC1,inactive
12,O=C(NCC1CCCO1)c1ccc(COCC(F)(F)C(F)F)cc1 (stereo unspecified),"inconclusive [inhibitor, full curve, poor fit]"
13,O=C(CCN1C(=O)COc2ccccc21)N1CCCCC1,"inconclusive [inhibitor, full curve, poor fit]"
14,CCCC[C@H]1COCCS(=O)(=O)N1Cc1cccc([N+](=O)[O-])c1,"inconclusive [inhibitor, partial curve, poor fit]"
15,Cc1ccccc1-c1nc(CS(=O)CC(=O)NCc2ccc3c(c2)OCO3)c(C)o1 (stereo unspecified),inactive
16,CN1CC(c2ccccc2)C2(SC(=S)N(Cc3ccco3)C2=O)C12C(=O)Nc1ccccc12 (stereo unspecified),inactive
17,N#Cc1c2n(c(=S)n(-c3ccccn3)c1=O)CCCCC2,"inconclusive [inhibitor, full curve]"
18,CCCC(=O)NC(C)c1nc2ccccc2n1C(C)C (stereo unspecified),"inconclusive [inhibitor, full curve, poor fit]"
19,COC(=O)c1cc(OC)c(OC)cc1NC(=O)CSc1ccccc1,"inconclusive [inhibitor, full curve, poor fit]"
20,CC1(C)C2CCC1(C)C(OC(=O)CSc1nc(N)cc(=O)[nH]1)C2 (stereo unspecified),"inconclusive [inhibitor, full curve, poor fit]"
21,COc1ccc(NC(=O)CSc2nnc(-c3ccc(C)cc3)o2)cc1,inactive
22,Cc1ccc(N/N=C(\C#N)C(=N)N2CCCCCC2)cc1,inactive
23,c1csc(CNc2ncnc3ccc(-c4ccc5c(c4)OCO5)cc23)c1,"inconclusive [inhibitor, full curve]"
